Test system: liquid medium inoculated with fresh morning saliva
Assay: In vitro test for reduction of bad breath (inoculated medium smelled by a panel of testers)
Details: 0.05% added to inoculated samples, 37 °C for some days
Method: The test is based on the work of Goldberg and Rosenberg (Production of Oral Malodor in an in vitro System, S. Goldberg and M. Rosenberg, pp.143-150, in: Bad Breath—A Multidisciplinary Approach, eds: D. van Steenberghe, M. Rosenberg, Leuven University Press, 1996) and was adapted for better reproducibility.
A sterile liquid medium inoculated with fresh morning saliva is incubated at 37 ° C. for some days and then smelled by a panel of testers.
An intensive, typical bad breath odour had formed. Non-inoculated controls have only a weak smell of the medium.
Triclosan® (5-chloro-2-(2,4-dichlorophenoxy)phenol) was added to inoculated samples in a concentration of 0.05% as a control for the tests.

With `Oc1cc(Cl)ccc1Oc1ccc(Cl)cc1Cl` [Triclosan®, 5-chloro-2-(2,4-dichlorophenoxy)phenol, reference compound] the “smell after the incubation time” value was “same weak media smell as the non-inoculated samples”.

Source: patent US20080085246A1, “Use of Eugenol Acetate as an Agent Against Bad Breath” (SYMRISE GMBH & CO. KG, priority 2004, published 2008)
